Data on 80 molecules can be found in publication PMC12040169 (PLOS Biology, 2025).

The list shows a part of the results.

For this assay, the system named is T1, C. trachomatis L2/434/Bu expressing GFP (CTL2-GFP).
T1 construct: L2/434/Bu GFP intracellular growth in HeLa cells
Further details: species or system HeLa; C. trachomatis total inclusion area by high-content imaging, normalised to DMSO. As to conditions: total inclusion area; 28.5 h, 10 µM; inhibitor. Put shortly: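 Following bulk GFP and resorufin fluorescence reads, infected cells were fixed, Hoechst-stained and imaged on a high-content platform. Inclusion total area and number per well served as growth proxies; nuclei counts indicated host viability. MICs were derived as for the fluorescence assay.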
Take `O=C(O)CCSc1nc2ccccc2[nH]1` [CBK262056]: the “% of control remaining” value was 96.9683.
Regarding `COc1ccc(-c2cnn(-c3ccccc3CN(C)C)n2)cc1` [CBK112762], the “% of control remaining” value turned out to be 80.6016.
As to `CCc1nc2ccccc2n1CC(=O)N(C)C(C)c1cccnc1` (centres unmarked) [CBK304017], the “% of control remaining” value is given as 84.1447.
In the case of `CC(=O)Nc1ccc(OCC(O)Cn2ncc3ccccc3c2=O)cc1` (centres unmarked) [CBK305567], the “% of control remaining” value is given as 34.3515.
As for `Cc1nn2c(-c3ccc(NC(=O)c4cccs4)cc3)nnc2c2ccccc12` [CBK267134], the figure is 82.9342; as for `CC(C)CN(CC(C)C)C(=O)Cn1cc([N+](=O)[O-])cc(C(N)=O)c1=O` [CBK297784], 112.449; as for `CC(C)C(=O)N1CC2(CCN(Cc3ccc(Cl)c(Cl)c3)CC2)c2ccccc21` [CBK126715], 89.3208.
Consider `O=C(Cc1cccc(F)c1)N1CCC(O)(c2ccccn2)CC1` [CBK283586], for which the “% of control remaining” value worked out at 127.215.
On to `O=C(O)CCN1CCN(S(=O)(=O)c2ccccc2)CC1` [CBK269402], for which the “% of control remaining” value is reported as 114.542.
The result for `COc1ccc(C2(C(=O)N[C@H]3CC[C@H](O)CC3)CC2)cc1` [CBK149840] reads 98.2273; that for `O=C(c1c(F)cc(-c2cncc(-c3ccc(O)cc3)n2)cc1F)N1CCOCC1` [CBK131973], 102.578; that for `COc1ccc(S(=O)(=O)N(C)CC(=O)O)cc1C` [CBK267176], 77.345.
Turning to `CSc1nnc(CC2CCN(C(=O)c3cccc(N)c3)CC2)n1C` [CBK307339], the “% of control remaining” value amounted to 116.016.
For `CN(C)C(=O)C1(Cc2ccccc2-c2cccs2)CCN(C(=O)Cc2ccccc2)CC1` [CBK285687], the “% of control remaining” value was 93.2586.
In the case of `CCCN(C(C)C(=O)N(C)C)S(=O)(=O)c1ccc(Cl)cc1` (centres unmarked) [CBK016123], the “% of control remaining” value was found to be 44.6649.
Regarding `Cc1cccc(OCc2nc3c4c5c(sc4ncn3n2)CCCCC5)c1C` [CBK265284], the “% of control remaining” value is listed as 103.639.
The result for `Nc1n[nH]c(CCCc2nc(N)n[nH]2)n1` [CBK261016] reads 93.3293; that for `O=C(CC(CN1CCN(CCO)CC1)C(=O)O)Nc1ccccc1F` (centres unmarked) [CBK286790], 99.2731; that for `O=C(O)c1cc(NCc2cccc(F)c2F)n[nH]1` [CBK287006], 111.784.
As to `COc1ccc(-c2cc(N3CCC(N4CCCCC4)CC3)ncn2)cc1OC` [CBK037752], the “% of control remaining” value is on record as 88.9816.
Turning to `CCC(=O)N1CCCC(c2nnc(-c3cccs3)o2)C1` (centres unmarked) [CBK283060], the “% of control remaining” value is 94.0307.
Consider `O=C(Nc1cccc(C(=O)O)c1)Nc1cccc(-c2ccccc2)c1` [CBK155451G], for which the “% of control remaining” value turned out to be 65.8906.
Turning to `Cc1nnc(O)c2c(C)n(-c3ccc(Br)cc3)nc12` [CBK008726], the “% of control remaining” value turned out to be 15.2228.
As for `Cc1cccc2c1CC(=O)NC21CCN(CC(=O)c2ccc(F)cc2)CC1` [CBK039946], the figure is 104.56; as for `O=C(CSc1nc2ccccc2c(=O)n1Cc1ccccc1)c1ccc(Br)cc1` [CBK262700], 102.259.
With `CC(=O)N1CCC(N[C@H]2C[C@@H](Cc3cc(CN4CCCCC4)on3)C2(C)C)CC1` [CBK289699], the “% of control remaining” value amounted to 113.777.
As for `O=C(O)C1CC1(C(=O)O)C(=O)O` (centres unmarked) [CBK261009], the “% of control remaining” value amounted to 92.9868.
For `COc1ccc(-c2nnc(SCC(=O)c3ccccc3)o2)cc1` [CBK069390], the “% of control remaining” value came to 93.2394.
On to `CCOC(=O)N1CCC(NC(=O)N2CCCC(C(=O)N(CC)CC)C2)CC1` (centres unmarked) [CBK156159], for which the “% of control remaining” value came out at 84.7324.
Regarding `Cc1cccc(C)c1-c1cn2ccnc2c(N2CCN(c3ccccn3)CC2)n1` [CBK037389], the “% of control remaining” value came out at 60.4123.
The result for `CCc1nnsc1C(=O)N1CCc2[nH]c3c(C)cccc3c2C1` [CBK281655] reads 94.9329; that for `O=S(=O)(c1c(Cl)cc(C(F)(F)F)cc1Cl)N1CCOCC1` [CBK057736], 111.84.
Regarding `COc1cncc(-c2cnc3[nH]c(=O)n([C@H](CO)C(C)C)c3n2)c1` [CBK064977], the “% of control remaining” value is 105.738.
`Cc1ccc(C2C(C(=O)c3ccc(Cl)cc3)=C(O)C(=O)N2CCCN2CCOCC2)o1` (centres unmarked) [CBK264514]: the “% of control remaining” value is reported as 99.1712.
For `COc1coc(CN2C(=O)COc3cccnc32)cc1=O` [CBK307126], the “% of control remaining” value is 82.9207.
As to `Nc1nnc(C2CCCCC2)s1` [CBK039123], the “% of control remaining” value came to 74.0634.
As to `COCCCNS(=O)(=O)c1ccc(-n2ncc(Cl)c(Cl)c2=O)cc1` [CBK305039], the “% of control remaining” value is given as 0.
Consider `CC(C)c1ccc(S(=O)(=O)NCc2c(F)ccc(Cl)c2F)cc1` [CBK043484], for which the “% of control remaining” value was 80.9681.
For `Cc1cc2ccccc2n2c(=O)n(CC(=O)NC3CCCC3)nc12` [CBK283884], the “% of control remaining” value worked out at 76.9277.
As for `CN1CCC(N2CCN(C(=O)Nc3ccc(Cl)cc3)CC2)CC1` [CBK155899], the “% of control remaining” value was determined as 99.2105.
Turning to `Cc1ccc(OC(C)C(=O)N2CCCc3c(cnn3C)C2)cc1` (centres unmarked) [CBK282242], the “% of control remaining” value is on record as 99.8112.
`CC(C)Nc1nc2ccccc2nc1OCc1ccsc1` [CBK115660]: the “% of control remaining” value is recorded as 103.189.
As for `O=C([C@H]1C[C@@H](O)[C@H](O)[C@@H]2N=C(Nc3ccc4c(c3)OCO4)S[C@@H]21)N1CCCCC1` [CBK288953], the figure is 116.94; as for `Nc1c(C(=O)NCC2CCCO2)c2nc3ccccc3nc2n1C1CCCC1` (centres unmarked) [CBK269217], 54.4439; as for `Cc1ccc(C)c(C(NC(=O)CCCn2ccnc2)c2ccncc2)c1` (centres unmarked) [CBK281476], 105.614.
As for `COc1cc(C(=O)N2CCC3(CC2)CC(=O)c2cc(-c4cccnc4)ccc2O3)cc(OC)c1C` [CBK169606], the “% of control remaining” value came out at 85.6567.
Consider `CC[C@H](Cn1nc(-c2cccs2)ccc1=O)NC(=O)C1CCC1` [CBK284295], for which the “% of control remaining” value was found to be 77.7741.
As for `CCOC(=O)c1cnn(-c2ccccc2)c1NS(=O)(=O)c1cccc(Cl)c1C` [CBK024055], the figure is 90.3676; as for `COc1ccc(-c2ccccc2)cc1CN(Cc1ccc2c(c1)OCO2)CC(C)O` (centres unmarked) [CBK286471], 87.1737; as for `CC(=O)Nc1ccc(CNC(=O)c2cc(C)n(CC(F)(F)F)c2C)cc1` [CBK304523], 85.6025.
Regarding `COc1cc(CNc2nccnc2-c2ccc(F)cc2)cc(OC)c1OC` [CBK037328], the “% of control remaining” value amounted to 99.0072.
The result for `O=C(CCCN1C(=O)/C(=C\c2cccs2)SC1=S)Nc1cccc(C(=O)O)c1` [CBK263636] reads 96.7722.
As for `Cn1ncc(Cl)c1C1CCCCCN1C(=O)c1cc(C2CC2)on1` (centres unmarked) [CBK284973], the figure is 105.162.
In the case of `CN1CCN(c2nc(NS(=O)(=O)c3ccc(C#N)cc3)cc3ccccc23)CC1` [CBK002977C], the “% of control remaining” value amounted to 104.744.
Take `O=C(Nc1cc2ccccc2c(Br)n1)C(F)(F)F` [CBK063301]: the “% of control remaining” value is on record as 66.5524.
Regarding `Cc1cc(/C=C(\C#N)c2nc3ccccc3[nH]2)c(C)n1-c1ccc(C(=O)O)cc1` [CBK267262], the “% of control remaining” value was found to be 114.2.
As for `CN1CCN(S(=O)(=O)c2ccc(-c3cnc(N)c(-c4ccc(O)cc4)n3)cc2F)CC1` [CBK131449], the “% of control remaining” value is listed as 79.8344.
Regarding `N/N=C1\C2CN3CCN(C2)CC1(Cc1ccccc1)C3` [CBK261977], the “% of control remaining” value is recorded as 112.944.
For `CCCCN1CC(=O)C(c2nc3ccccc3[nH]2)=C1N` [CBK287777], the “% of control remaining” value was 82.5663.
Consider `Cc1ccc(NC(=O)/C(C#N)=C/c2ccc(-c3ccccc3C(=O)O)o2)cc1Cl` [CBK263208], for which the “% of control remaining” value turned out to be 44.1578.
The result for `C=CCN1C(=O)CC2(C1=O)C(=O)N(C)c1ccc(Cl)cc12` (centres unmarked) [CBK075242] reads 101.337; that for `Clc1ccc(-c2nc(-c3ccncc3)no2)c(Cl)c1` [CBK262615], 93.9366; that for `Cn1ccnc1C1(O)CCN(C(=O)CCc2ccccc2)CC1` [CBK283542], 94.6947.
Turning to `O=C(NCCc1c[nH]c2ccccc12)c1cc(Br)cnc1N1CCOCC1` [CBK076224], the “% of control remaining” value is reported as 110.931.
In the case of `COc1ccc(C(=O)N2CCC3(CCN(CCCCC4NC(=O)NC4=O)C3)C2)cc1OC` (centres unmarked) [CBK132169], the “% of control remaining” value amounted to 105.069.
As for `O=c1[nH]c(=O)c2cc(S(=O)(=O)N3CCc4[nH]c5ccccc5c4C3)ccc2[nH]1` [CBK285949], the figure is 99.5682; as for `COc1ccc(OC(C)C(=O)Nc2cc3oc4ccccc4c3cc2OC)cc1` (centres unmarked) [CBK266751], 61.1498.
With `CCc1nc2ccc(C(=O)NCCN3CCOCC3)cn2c1N(C)Cc1cc2ccccc2s1` [CBK146561], the “% of control remaining” value is reported as 94.1239.
As for `OC(CN1CCN(c2ccc(C(F)(F)F)cn2)CC1)c1ccc2c(c1)OCCO2` (centres unmarked) [CBK074707], the figure is 83.3466.
As for `COc1ccc(OC)c(C(O)CN2CCCC(C(=O)N3CCCCCC3)C2)c1` (centres unmarked) [CBK286286], the figure is 85.2275; as for `Cc1ccc(S(=O)(=O)NC(=O)N2CC3(C)CC2CC(C)(C)C3)cc1` (centres unmarked) [CBK023512], 82.3047.
Consider `O=C(NC1CCS(=O)(=O)C1)c1cc(-c2cccnc2)cnc1NCc1ccc2c(c1)OCO2` (centres unmarked) [CBK076455], for which the “% of control remaining” value is on record as 102.501.
For the molecule `Cc1ccc(NC2=NC(C(=O)Nc3ccc(C)c(C)c3)CC(=O)N2)cc1` (centres unmarked) [CBK266718], the “% of control remaining” value is 105.735.
As to `Cc1ccc(CCC(=O)Nc2nc3c(cc2C#N)CCC3)o1` [CBK306366], the “% of control remaining” value is on record as 13.212.
`CN(CC(=O)O)S(=O)(=O)c1ccc2c(c1)OCCO2` [CBK263904]: the “% of control remaining” value was 111.956.
With `O=C(CN1CCOCC1)N/N=C/c1ccncc1` [CBK019949], the “% of control remaining” value is reported as 50.2807.
Consider `O=C1CC(c2cccs2)Sc2nc3ccccc3n21` (centres unmarked) [CBK091627], for which the “% of control remaining” value came out at 92.5545.
In the case of `O=C(c1ccccc1)C(Sc1nnc2sc3ccccc3n12)c1ccccc1` (centres unmarked) [CBK265416], the “% of control remaining” value was found to be 104.667.
The result for `O=C(NCCn1ccnc1)C1CC(=O)N(c2cccc(F)c2)C1` (centres unmarked) [CBK281582] reads 94.8421; that for `Cc1ccc(O)c(Nc2ncnc3ccc(Br)cc23)c1` [CBK269028C], 100.289.
